From patent publication EP4799608A2 (Regeneron Pharmaceuticals, Inc., dated 2026)

Molecular target: T1, human VEGF165 (human, UniProt P15692-4 27-191)
T1 construct: This is the VEGF found in the aflibercept:VEGF complex measured in participants' plasma, and in the VEGF:aflibercept ELISA calibration standards; also called endogenous VEGF
T1 sequence (looked up): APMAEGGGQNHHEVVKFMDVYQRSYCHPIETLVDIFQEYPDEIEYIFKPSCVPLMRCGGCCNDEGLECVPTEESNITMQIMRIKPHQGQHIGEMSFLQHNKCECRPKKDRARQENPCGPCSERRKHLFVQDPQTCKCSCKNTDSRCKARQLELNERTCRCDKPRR
Experiment: validated ELISA for bound aflibercept (VEGF:aflibercept complex) in plasma of trial participants, calibrated with VEGF:aflibercept standards

B1: aflibercept (Fc fusion)
chain: SDTGRPFVEMYSEIPEIIHMTEGRELVIPCRVTSPNITVTLKKFPLDTLIPDGKRIIWDSRKGFIISNATYKEIGLLTCEATVNGHLYKTNYLTHRQTNTIIDVVLSPSHGIELSVGEKLVLNCTARTELNVGIDFNWEYPSSKHQHKKLVNRDLKTQSGSEMKKFLSTLTIDGVTRSDQGLYTCAASSGLMTKKNSTFVRVHEK[left out - human IgG1 Fc]
notes: Homodimer of two fusion polypeptides; also called VEGF Trap; VEGF-Trap
  binding result: binds
